# In the supplement of paper PMC8728848:
# The other results are listed elsewhere or left out.
# B1: EULS2 M4 (Oryza sativa) (protein)
# chain: MVYCRANPNYAMTARNGAVVLAPANPKDEYQHWIKDMRWSTSIKDEEGYPAFALVNKATGQAIKHSLGQSHPVRLVPYNPEVMDESVLWTESRDVGNGFRCIRMVNNIYLNFDAFHGDKYHGGVRDGTDIVLWKWCEGDSLRWKIQPYYILEQKLISEEDLNSAVDHHHHHH
# Legend:
# Test in all cases: glycan array binding signal (z-score within array); higher = stronger binding
# Details in all cases: glycan notation: IUPAC condensed, linker removed
# [1] = target: Fuc(a1-2)Gal
# Procedure, shortened: (§1)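 The binding signal is a Z-score computed within each array. Data were drawn from 3228 arrays in the Consortium for Functional Glycomics database, restricted to those with a known protein sequence. Scores were averaged over arrays of the same protein sequence at different concentrations or buffers, and over linkers, and negative values can be taken as non-binding.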
# [2] = target: Fuc(a1-2)Gal(b1-3)GalNAc
# Procedure, shortened: as §1
# [3] = target: Fuc(a1-2)Gal(b1-3)GalNAc(a1-3)[Fuc(a1-2)]Gal(b1-4)Glc
# Procedure, shortened: as §1
# [4] = target: Fuc(a1-2)Gal(b1-3)GalNAc(a1-3)[Fuc(a1-2)]Gal(b1-4)GlcNAc
# Procedure, shortened: as §1
# [5] = target: Fuc(a1-2)Gal(b1-3)GalNAc(b1-3)Gal
# Procedure, shortened: as §1
# [6] = target: Fuc(a1-2)Gal(b1-3)GalNAc(b1-3)Gal(a1-4)Gal(b1-4)Glc
# Procedure, shortened: as §1
# [7] = target: Fuc(a1-2)Gal(b1-3)GalNAc(b1-4)[Neu5Ac(a2-3)]Gal(b1-4)Glc
# Procedure, shortened: as §1
# [8] = target: Fuc(a1-2)Gal(b1-3)GlcNAc
# Procedure, shortened: as §1
# [9] = target: Fuc(a1-2)Gal(b1-3)GlcNAc(b1-2)Man(a1-3)[Fuc(a1-2)Gal(b1-3)GlcNAc(b1-2)Man(a1-6)]Man(b1-4)GlcNAc(b1-4)GlcNAc
# Procedure, shortened: as §1
# [10] = target: Fuc(a1-2)Gal(b1-3)GlcNAc(b1-2)Man(a1-3)[Fuc(a1-2)Gal(b1-3)GlcNAc(b1-2)Man(a1-6)]Man(b1-4)GlcNAc(b1-4)[Fuc(a1-6)]GlcNAc
# Procedure, shortened: as §1
# [11] = target: Fuc(a1-2)Gal(b1-3)GlcNAc(b1-3)Gal(b1-4)Glc
# Procedure, shortened: as §1
# [12] = target: Fuc(a1-2)Gal(b1-3)GlcNAc(b1-3)GalNAc
# Procedure, shortened: as §1
# [13] = target: Fuc(a1-2)Gal(b1-3)GlcNAc(b1-3)[Fuc(a1-2)Gal(b1-3)GlcNAc(b1-6)]GalNAc
# Procedure, shortened: as §1
# [14] = target: Fuc(a1-2)Gal(b1-3)GlcNAc(b1-3)[Gal(b1-4)GlcNAc(b1-6)]Gal(b1-4)Glc
# Procedure, shortened: as §1
# [15] = target: Fuc(a1-2)Gal(b1-3)GlcNAc(b1-3)[Neu5Ac(a2-6)Gal(b1-4)GlcNAc(b1-6)]Gal(b1-4)Glc
# Procedure, shortened: as §1
# [16] = target: Fuc(a1-2)Gal(b1-3)GlcNAc6S
# Procedure, shortened: as §1
# [17] = target: Fuc(a1-2)Gal(b1-3)[Fuc(a1-4)]GlcNAc
# Procedure, shortened: as §1
# [18] = target: Fuc(a1-2)Gal(b1-3)[Fuc(a1-4)]GlcNAc(b1-2)Man(a1-3)[Fuc(a1-2)Gal(b1-3)[Fuc(a1-4)]GlcNAc(b1-2)Man(a1-3)]Man(b1-4)GlcNAc(b1-4)GlcNAc
# Procedure, shortened: as §1
# [19] = target: Fuc(a1-2)Gal(b1-3)[Fuc(a1-4)]GlcNAc(b1-2)Man(a1-3)[Fuc(a1-2)Gal(b1-3)[Fuc(a1-4)]GlcNAc(b1-2)Man(a1-6)]Man(b1-4)GlcNAc(b1-4)[Fuc(a1-6)]GlcNAc(b1-4)[Fuc(a1-6)]GlcNAc
# Procedure, shortened: as §1
# [20] = target: Fuc(a1-2)Gal(b1-3)[Fuc(a1-4)]GlcNAc(b1-3)[Fuc(a1-3)[Gal(b1-4)]GlcNAc(b1-6)]Gal(b1-4)Glc
# Procedure, shortened: as §1
# [21] = target: Fuc(a1-2)Gal(b1-3)[Fuc(a1-4)]GlcNAc(b1-3)[Gal(b1-4)GlcNAc(b1-6)]Gal(b1-4)Glc
# Procedure, shortened: as §1
# [22] = target: Fuc(a1-2)Gal(b1-4)Glc
# Procedure, shortened: as §1
# [23] = target: Fuc(a1-2)Gal(b1-4)Glc6S
# Procedure, shortened: as §1
# [24] = target: Fuc(a1-2)Gal(b1-4)GlcNAc
# Procedure, shortened: as §1
# [25] = target: Fuc(a1-2)Gal(b1-4)GlcNAc(b1-2)Man
# Procedure, shortened: as §1
# [26] = target: Fuc(a1-2)Gal(b1-4)GlcNAc(b1-2)Man(a1-3)[Fuc(a1-2)Gal(b1-4)GlcNAc(b1-2)Man(a1-6)]Man(b1-4)GlcNAc(b1-4)GlcNAc
# Procedure, shortened: as §1
# [27] = target: Fuc(a1-2)Gal(b1-4)GlcNAc(b1-2)Man(a1-3)[Fuc(a1-2)Gal(b1-4)GlcNAc(b1-2)Man(a1-6)]Man(b1-4)GlcNAc(b1-4)[Fuc(a1-6)]GlcNAc
# Procedure, shortened: as §1
# [28] = target: Fuc(a1-2)Gal(b1-4)GlcNAc(b1-2)[Fuc(a1-2)Gal(b1-4)GlcNAc(b1-4)]Man(a1-3)[Fuc(a1-2)Gal(b1-4)GlcNAc(b1-2)Man(a1-6)]Man(b1-4)GlcNAc(b1-4)GlcNAc
# Procedure, shortened: as §1
# [29] = target: Fuc(a1-2)Gal(b1-4)GlcNAc(b1-3)Gal(b1-4)GlcNAc
# Procedure, shortened: as §1
# [30] = target: Fuc(a1-2)Gal(b1-4)GlcNAc(b1-3)Gal(b1-4)GlcNAc(b1-2)Man(a1-3)[Fuc(a1-2)Gal(b1-4)GlcNAc(b1-3)Gal(b1-4)GlcNAc(b1-2)Man(a1-6)]Man(b1-4)GlcNAc(b1-4)GlcNAc
# Procedure, shortened: as §1
# [31] = target: Fuc(a1-2)Gal(b1-4)GlcNAc(b1-3)Gal(b1-4)GlcNAc(b1-3)Gal(b1-4)GlcNAc
# Procedure, shortened: as §1
# [32] = target: Fuc(a1-2)Gal(b1-4)GlcNAc(b1-3)GalNAc
# Procedure, shortened: as §1
# [33] = target: Fuc(a1-2)Gal(b1-4)GlcNAc(b1-3)[Fuc(a1-2)Gal(b1-4)GlcNAc(b1-6)]GalNAc
# Procedure, shortened: as §1
# [34] = target: Fuc(a1-2)Gal(b1-4)GlcNAc(b1-3)[Fuc(a1-3)[Gal(b1-4)]GlcNAc(b1-6)]Gal(b1-4)Glc
# Procedure, shortened: as §1
# [35] = target: Fuc(a1-2)Gal(b1-4)GlcNAc(b1-6)GalNAc
# Procedure, shortened: as §1
# [36] = target: Fuc(a1-2)Gal(b1-4)GlcNAc6S
# Procedure, shortened: as §1
# [37] = target: Fuc(a1-2)Gal(b1-4)[Fuc(a1-3)]GlcNAc
# Procedure, shortened: as §1
# [38] = target: Fuc(a1-2)Gal(b1-4)[Fuc(a1-3)]GlcNAc(b1-2)Man(a1-3)[Fuc(a1-2)Gal(b1-4)[Fuc(a1-3)]GlcNAc(b1-2)Man(a1-6)]Man(b1-4)GlcNAc(b1-4)[Fuc(a1-6)]GlcNAc
# Procedure, shortened: as §1
# [39] = target: Fuc(a1-2)Gal(b1-4)[Fuc(a1-3)]GlcNAc(b1-2)[Fuc(a1-2)Gal(b1-4)[Fuc(a1-3)]GlcNAc(b1-4)]Man(a1-3)[Fuc(a1-2)Gal(b1-4)[Fuc(a1-3)]GlcNAc(b1-2)Man(a1-6)]Man(b1-4)GlcNAc(b1-4)GlcNAc
# Procedure, shortened: as §1
# [40] = target: Fuc(a1-2)Gal(b1-4)[Fuc(a1-3)]GlcNAc(b1-3)Gal(b1-4)[Fuc(a1-3)]GlcNAc
# Procedure, shortened: as §1
# [41] = target: Fuc(a1-2)Gal(b1-4)[Fuc(a1-3)]GlcNAc(b1-3)Gal(b1-4)[Fuc(a1-3)]GlcNAc(b1-3)Gal(b1-4)[Fuc(a1-3)]GlcNAc
# Procedure, shortened: as §1
# [42] = target: Fuc(a1-2)Gal(b1-4)[Fuc(a1-3)]GlcNAc(b1-3)GalNAc
# Procedure, shortened: as §1
# [43] = target: Fuc(a1-2)Gal(b1-4)[Fuc(a1-3)]GlcNAc(b1-3)[Neu5Ac(a2-6)Gal(b1-4)GlcNAc(b1-6)]Gal(b1-4)Glc
# Procedure, shortened: as §1
# [44] = target: Fuc(a1-2)Gal3S(b1-4)GlcNAc
# Procedure, shortened: as §1
# [45] = target: Fuc(a1-2)Gal6S(b1-3)GlcNAc
# Procedure, shortened: as §1
binder,measurement,setting,value
B1,glycan array binding signal (z-score),[1],0.398
same,glycan array binding signal (z-score),[2],-0.317
same,glycan array binding signal (z-score),[3],-0.362
same,glycan array binding signal (z-score),[4],-0.405
same,glycan array binding signal (z-score),[5],0.371
same,glycan array binding signal (z-score),[6],-0.236
same,glycan array binding signal (z-score),[7],-0.276
same,glycan array binding signal (z-score),[8],-0.073
same,glycan array binding signal (z-score),[9],0.444
same,glycan array binding signal (z-score),[10],0.367
same,glycan array binding signal (z-score),[11],-0.293
same,glycan array binding signal (z-score),[12],-0.542
same,glycan array binding signal (z-score),[13],-0.233
same,glycan array binding signal (z-score),[14],-0.123
same,glycan array binding signal (z-score),[15],-0.398
same,glycan array binding signal (z-score),[16],0.453
same,glycan array binding signal (z-score),[17],-0.403
same,glycan array binding signal (z-score),[18],0.146
same,glycan array binding signal (z-score),[19],0.681
same,glycan array binding signal (z-score),[20],0.066
same,glycan array binding signal (z-score),[21],-0.039
same,glycan array binding signal (z-score),[22],0.003
same,glycan array binding signal (z-score),[23],-0.377
same,glycan array binding signal (z-score),[24],-0.089
same,glycan array binding signal (z-score),[25],0.636
same,glycan array binding signal (z-score),[26],-0.027
same,glycan array binding signal (z-score),[27],-0.19
same,glycan array binding signal (z-score),[28],0.045
same,glycan array binding signal (z-score),[29],-0.01
same,glycan array binding signal (z-score),[30],-0.437
same,glycan array binding signal (z-score),[31],-0.532
same,glycan array binding signal (z-score),[32],-0.362
same,glycan array binding signal (z-score),[33],-0.253
same,glycan array binding signal (z-score),[34],-0.777
same,glycan array binding signal (z-score),[35],-0.469
same,glycan array binding signal (z-score),[36],-0.42
same,glycan array binding signal (z-score),[37],0.022
same,glycan array binding signal (z-score),[38],0.413
same,glycan array binding signal (z-score),[39],-0.19
same,glycan array binding signal (z-score),[40],-0.523
same,glycan array binding signal (z-score),[41],-0.454
same,glycan array binding signal (z-score),[42],-0.416
same,glycan array binding signal (z-score),[43],-0.466
same,glycan array binding signal (z-score),[44],0.052
same,glycan array binding signal (z-score),[45],1.41
